Results from the supplement of paper PMC3334620.
In all, about 33,000 sequences were measured (“E-score (-0.5 to 0.5)”: median about -0.035, highest 2% from about 0.35 on). Some of the results follow.

Each sequence was assayed against T1, Pdr3 (UniProt P33200) (assay: PBM E-score (8-mer binding enrichment) (E-score (-0.5 to 0.5)); higher = stronger / more preferred TF binding; most listed sequences are background and not binding sites). Details: protein concentration: 200 nM; construct: GST-full length.
T1 sequence: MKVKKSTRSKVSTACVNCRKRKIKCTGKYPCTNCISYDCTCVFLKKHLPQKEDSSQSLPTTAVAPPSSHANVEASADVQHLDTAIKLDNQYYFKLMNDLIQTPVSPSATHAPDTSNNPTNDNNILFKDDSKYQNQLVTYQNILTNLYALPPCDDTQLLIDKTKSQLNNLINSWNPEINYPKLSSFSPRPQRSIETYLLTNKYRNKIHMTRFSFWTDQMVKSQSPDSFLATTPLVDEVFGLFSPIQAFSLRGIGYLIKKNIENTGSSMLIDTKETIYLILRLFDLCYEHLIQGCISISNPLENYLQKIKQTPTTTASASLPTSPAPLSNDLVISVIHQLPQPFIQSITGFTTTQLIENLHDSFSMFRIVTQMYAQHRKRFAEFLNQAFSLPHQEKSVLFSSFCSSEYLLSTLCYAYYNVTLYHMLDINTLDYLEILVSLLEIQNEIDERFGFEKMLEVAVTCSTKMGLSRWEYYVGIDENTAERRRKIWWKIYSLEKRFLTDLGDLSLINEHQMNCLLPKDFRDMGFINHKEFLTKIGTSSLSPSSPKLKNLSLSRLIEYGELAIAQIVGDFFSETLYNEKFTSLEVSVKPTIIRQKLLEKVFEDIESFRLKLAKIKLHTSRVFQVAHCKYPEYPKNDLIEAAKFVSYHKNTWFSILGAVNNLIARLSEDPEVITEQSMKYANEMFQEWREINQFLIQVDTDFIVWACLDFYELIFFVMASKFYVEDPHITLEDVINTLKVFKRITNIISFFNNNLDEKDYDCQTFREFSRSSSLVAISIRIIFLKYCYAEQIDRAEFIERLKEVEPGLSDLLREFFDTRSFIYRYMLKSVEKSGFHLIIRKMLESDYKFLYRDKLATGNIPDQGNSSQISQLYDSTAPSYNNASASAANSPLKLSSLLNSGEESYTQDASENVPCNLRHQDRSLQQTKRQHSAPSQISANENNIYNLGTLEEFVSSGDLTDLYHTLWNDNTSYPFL
Method in brief: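 Detection of bound protein used fluorescent anti-GST, with scans normalised by masliner. The proteins were GST-tagged yeast transcription factors applied at about 100-200 nM to universal all-10-mer Agilent arrays made double-stranded by primer extension. Each ungapped eight-base word, pooled with its reverse complement, was scored with an E-score from the Universal PBM Analysis Suite.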

Point of comparison: TATCTAAA, “PBM E-score” value 0.0842. Against it:
- AACGCTGC — lower, -0.221
- CAAATGTG — higher, 0.11
- AGGGAGAT — lower, -0.193
- AAGTGAAC — lower, -0.0909
- GTGCTCCA — lower, -0.226
- ACAAAAGC — lower, -0.105
- CCGTACCC — higher, 0.131
- CGCCGCCA — higher, 0.142
- AAAACCTA — lower, -0.158
- GTTTAATA — lower, 0.0237
- AAGCCGAA — higher, 0.196
- ACTGACTA — lower, -0.231
- ACCTCTAT — lower, -0.0654
- AATCCAAG — lower, -0.0532
- TCCGGACA — higher, 0.447
- TACCTATA — lower, -0.293
- AAGTAAAA — lower, -0.119
- GGTTTCGA — higher, 0.134
- ATGGGGAG — lower, -0.155
- AAAAAGCC — higher, 0.192
- AGATTGTA — lower, -0.156
- GATCGCGA — higher, 0.183
- CTGTACAA — lower, -0.1
- TACGGAGA — higher, 0.178
- TGACGAAA — lower, -0.112
- CCGGTAAG — higher, 0.294
- GCGCTCTA — lower, -0.0312
- TAACGCGA — lower, -0.0326
- AGTAATAG — lower, -0.121
- CGATGGCC — lower, -0.0457
- CTCGACTA — lower, -0.113
- AGGGGCCA — lower, -0.103
- CGTAAGCC — lower, -0.0414
- GTAGGTGA — lower, -0.263
- TCAGATGA — lower, -0.118
- ATCTGTAG — lower, -0.15
- TACACGGA — higher, 0.3
- GCCACAGC — lower, -0.0837
- AACTCAAA — lower, -0.0246
- AAGCGACG — lower, 0.0395
- CAGGGCAC — lower, -0.00368
- GCAGTACC — lower, 0.0138
- CAAGACCG — lower, -0.0218
- ACTGCCTC — lower, -0.00327
- CATGAGAC — lower, -0.0869
- CTCTGAAG — lower, -0.23
- ATCATCCA — lower, -0.0404
- TGGCCTAA — lower, -0.223
- AACCGTCT — lower, -0.137
- TGCATCAA — lower, 0.0784
- ATATAAAG — lower, -0.136
- GGCGCATA — higher, 0.0934
- CCCACTAG — lower, -0.128
- GTGAGCTA — lower, -0.138
- CACATCGC — lower, -0.0103
- AAAACGTC — lower, -0.0442
- AAAGCCAC — lower, -0.0196
- AGGCCCGC — higher, 0.151
- GTCAAAAC — lower, 0.0242
- GATAGTAA — lower, 0.0485
- TATGTACA — lower, -0.2
- AACCATTC — lower, 0.00272
- CAATGCCA — lower, -0.0947
- CGTTCTTA — higher, 0.159
- ACATCGCC — higher, 0.111
- CGCCATAC — lower, 0.0216
- AGTTTTAT — lower, 0.026
- CCGAAGTA — higher, 0.256
- TAGAAGAA — lower, -0.144
- AATCAACT — higher, 0.0921
- CAAATAAC — lower, 0.0456
- TGACTGCA — lower, -0.218
- CTGGAGAC — lower, -0.137
- AAAGGACG — lower, -0.154
- AAAAATTG — lower, -0.105
- CGACATAG — lower, -0.159
- TGGCATAA — lower, -0.035
- CGTACGCA — lower, -0.17
- TCCTGCAA — lower, -0.12
- GGGGCGAC — lower, -0.00808
- AGCGAGTA — higher, 0.226
- CTGAGACC — lower, -0.0954
- GATCTCAA — higher, 0.144
- ACTGGCAC — lower, -0.0714
- AGTGCCAA — lower, -0.167
- GGATGGCC — lower, -0.00764
- TATAAATA — higher, 0.208
- GGGTTTAC — lower, -0.00165
- ATACCTAA — lower, -0.0418
- ATACGCCG — higher, 0.155
- CATTAGAC — lower, -0.178
- GCTCATGA — lower, -0.106
- GAGGGGTA — lower, 0.00223
- AGAGCGAA — lower, -0.0563
- CCCCGTGA — lower, 0.0755
- CGCAGGTC — lower, -0.0398
- GAGAATAA — lower, -0.083
- AAGAAATC — lower, -0.104
- AAAGCACA — lower, -0.121
- GGTTACAA — lower, -0.00384
- AATACATA — lower, -0.0287
- AACGGGCG — lower, 0.0106
- AACCTGCA — lower, -0.0269
- AAACTAGC — lower, -0.159
- GGATAAAC — higher, 0.195
- ACAACACA — lower, -0.129
- CAACCGAA — higher, 0.167
- GCGGGTAC — higher, 0.239
- ACGGTAAG — lower, 0.0665
- AGAATGGC — lower, 0.0693
- AGGCAACT — lower, 0.0755
- TATCCTCA — lower, -0.11
- AAGGGACC — lower, -0.0339
- AACGAAAT — lower, 0.0569
- AGTTCGAT — lower, -0.0424
- AATGGGGG — lower, -0.134
- AAGAAAGC — lower, -0.0817
- AACTCCGT — higher, 0.271
- ACAGCCAT — lower, -0.0801
- AATGCGTC — lower, -0.0804
- CGGCTACC — higher, 0.242
- CTGGCTCC — lower, -0.046
- AGAGCCTC — lower, -0.16
- GTTCCTTA — lower, -0.111
- ACGGGAAG — higher, 0.133
- CAGAGTAA — lower, -0.181
- CAGAGATA — lower, -0.0613
- AACTGTAT — lower, 0.0308
- CCTCATAG — lower, -0.0951
- CCAGGAAG — lower, -0.235
- GCTAGTAC — lower, -0.145
- TCATCGCA — lower, -0.145
- AGAGGCAG — lower, -0.162
- AATAGTGA — lower, -0.137
- AGGGAGTG — lower, -0.181
- AGCACGTG — lower, -0.113
- ACTAGCCC — lower, -0.0838
- ACTGCGTG — lower, -0.323
- GCAATCTA — lower, -0.0331
- GCAGCTCA — lower, -0.123
- CAGCGATC — higher, 0.139
- TGATAACA — lower, -0.0461
- GTCACTCA — lower, 0.0354
- CAGGCGGA — higher, 0.344
- TAAAGAGA — lower, -0.149
- ATCACTAC — lower, -0.118
- TGTCTTAA — lower, -0.0565
- AGTTCGGA — higher, 0.313
- ATTTGCAA — lower, 0.0204
- GGAACGCC — higher, 0.278
- ACGGCCTG — lower, 0.0213
- CCACCTGA — lower, 0.0202
- AACACCGC — lower, 0.0385
- AAAATCAA — lower, 0.0367
- CATCGTGG — lower, -0.036
- ACCGTGGG — lower, -0.0668
- TGCAGTAA — lower, -0.191
- GTCCGGAA — higher, 0.457
- ACTAGGCA — lower, -0.293
- ACAGAGAT — lower, -0.0971
- CACGCACG — lower, 0.0761
- ATTGGGTG — higher, 0.18
- ATTTTGCC — lower, -0.0613
- GACACCAC — lower, -0.0851
- AGATAAAT — higher, 0.14
- ACGGCAGC — higher, 0.102
- CGTAGTGA — lower, -0.0441
- ACATACTC — lower, -0.0334
- AATGTAGC — lower, -0.115
- AGGTCGCA — higher, 0.0949
- AGGAGGGA — lower, -0.202
